The full ranking holds about 81,000 sequences; the median of “one-hybrid fitness for binding parS DNA” is about -0.17, and the highest 2% start at about 0.51. Some of the results follow.
B1: Caulobacter ParB omega fusion; a variant is named by its letters at X, in order, B8GW30 (parent)
chain: MESVVVGEPGMSEGRRGLGRGLSALLGEVDAAPAQAPGEQLGGSREAPIEILQRNPDQPRRTFREEDLEDLSNSIREKGVLQPILVRPSPDTAGEYQIVAGERAWRAAQRAGLKTVPIMVRELDDLAVLEIGIIENVQRADLNVLEEALSYKVLMEKFERTQENIAQTIGKSXSHVANXMRLLXLPDEVQSYLVSGELTAXHARAIAAAADPVALAKQIIEGGLSVRETEALARKAPNLSAGKSKGGRPPRVKDTDTQALESDLSSVLGLDVSIDHRGSTGTLTITYATLEQLDDLCNRLTRGI

Variants of: B1
Assay: one-hybrid fitness for binding parS DNA (scaled: cognate 1, non-cognate 0); higher = stronger binding
Conditions: with parS DNA site
In short: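 Fitness here means the log change in variant-to-wild-type read ratio between plasmids sequenced before and after selection. That scale was set so cognate equals 1 and non-cognate equals 0. The selection was a bacterial one-hybrid screen of Caulobacter ParB libraries, four specificity codons randomised, in E. coli USO carrying a HIS3 reporter with the site 19 bp from the promoter, grown 48 hours at 37°C on M9-minus-histidine with 0.1 mM IPTG and 5 mM 3-AT.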

Variant | one-hybrid fitness for binding parS DNA
LNHC | ≤ 0.2
LFTW | ≤ 0.2
AMSY | ≤ 0.2
NDRY | ≤ 0.2
GSMI | ≤ 0.2
SKSH | ≤ 0.2
YTYD | ≤ 0.2
NANF | ≤ 0.2
EYMT | ≤ 0.2
RRQT | 0.551
ILYP | ≤ 0.2
GNWG | ≤ 0.2
RHFK | ≤ 0.2
MFMG | ≤ 0.2
LGLM | ≤ 0.2
RLFH | 0.258
MKTK | ≤ 0.2
APVY | ≤ 0.2
QKHC | ≤ 0.2
LKCV | ≤ 0.2
LWHT | ≤ 0.2
QWYT | ≤ 0.2
RASH | 0.225
VYVL | ≤ 0.2
FEAS | ≤ 0.2

Variant | one-hybrid fitness for binding parS DNA
TFTF | ≤ 0.2
QVPD | ≤ 0.2
FNYI | ≤ 0.2
HRWH | ≤ 0.2
GSSF | ≤ 0.2
KYAK | ≤ 0.2
RDHQ | ≤ 0.2
LAFS | ≤ 0.2
RCAD | 0.25
RHGA | 0.546
YYHN | ≤ 0.2
QCNF | ≤ 0.2
CRKY | ≤ 0.2
PVDT | ≤ 0.2
QKHN | ≤ 0.2
GSKD | 0.213
MSPG | ≤ 0.2
ACYR | ≤ 0.2
AGAS | ≤ 0.2
RTPY | 0.221
CAPV | ≤ 0.2
QMND | ≤ 0.2
FGAF | ≤ 0.2
VPIK | ≤ 0.2
NCVG | ≤ 0.2

Variant | one-hybrid fitness for binding parS DNA
HRLM | ≤ 0.2
RAPP | ≤ 0.2
HARC | ≤ 0.2
QGQL | ≤ 0.2
YCNG | ≤ 0.2
PGDW | ≤ 0.2
DYHR | ≤ 0.2
PTYH | ≤ 0.2
RKES | 0.899
RFEC | 0.727
AGKI | ≤ 0.2
SWHI | ≤ 0.2
VGHT | ≤ 0.2
MGVS | ≤ 0.2
GRIR | ≤ 0.2
PWSI | ≤ 0.2
QARN | ≤ 0.2
HTGY | ≤ 0.2
MVFS | ≤ 0.2
YAPP | ≤ 0.2
VFTP | ≤ 0.2
RPMY | ≤ 0.2
GLNS | ≤ 0.2
ATVG | ≤ 0.2
PHDV | ≤ 0.2

Variant | one-hybrid fitness for binding parS DNA
QAVN | ≤ 0.2
ILIG | ≤ 0.2
QVAP | ≤ 0.2
FRNS | ≤ 0.2
QKFT | ≤ 0.2
NACG | ≤ 0.2
QNMN | ≤ 0.2
KHQH | ≤ 0.2
QILF | ≤ 0.2
IPTK | ≤ 0.2
GHLM | ≤ 0.2
DEYM | ≤ 0.2
TTFT | ≤ 0.2
AWVD | ≤ 0.2
SRPE | ≤ 0.2
TPGN | ≤ 0.2
HPKC | ≤ 0.2
NAHG | ≤ 0.2
SNNC | ≤ 0.2
MVSR | ≤ 0.2
SSSD | ≤ 0.2
DNIS | ≤ 0.2
